According to the supplement of paper PMC3334620:
Whole data set: some 33,000 sequences, median “E-score (-0.5 to 0.5)” near -0.054, cut for the highest 2% near 0.35. The list shows a part of the results.

The sequences below were run against T1, Stb5 (UniProt P38699) (assay: PBM E-score (8-mer binding enrichment) (E-score (-0.5 to 0.5)); higher = stronger / more preferred TF binding; most listed sequences are background and not binding sites). Details: protein concentration: 200 nM; construct: GST-full length.
T1 sequence: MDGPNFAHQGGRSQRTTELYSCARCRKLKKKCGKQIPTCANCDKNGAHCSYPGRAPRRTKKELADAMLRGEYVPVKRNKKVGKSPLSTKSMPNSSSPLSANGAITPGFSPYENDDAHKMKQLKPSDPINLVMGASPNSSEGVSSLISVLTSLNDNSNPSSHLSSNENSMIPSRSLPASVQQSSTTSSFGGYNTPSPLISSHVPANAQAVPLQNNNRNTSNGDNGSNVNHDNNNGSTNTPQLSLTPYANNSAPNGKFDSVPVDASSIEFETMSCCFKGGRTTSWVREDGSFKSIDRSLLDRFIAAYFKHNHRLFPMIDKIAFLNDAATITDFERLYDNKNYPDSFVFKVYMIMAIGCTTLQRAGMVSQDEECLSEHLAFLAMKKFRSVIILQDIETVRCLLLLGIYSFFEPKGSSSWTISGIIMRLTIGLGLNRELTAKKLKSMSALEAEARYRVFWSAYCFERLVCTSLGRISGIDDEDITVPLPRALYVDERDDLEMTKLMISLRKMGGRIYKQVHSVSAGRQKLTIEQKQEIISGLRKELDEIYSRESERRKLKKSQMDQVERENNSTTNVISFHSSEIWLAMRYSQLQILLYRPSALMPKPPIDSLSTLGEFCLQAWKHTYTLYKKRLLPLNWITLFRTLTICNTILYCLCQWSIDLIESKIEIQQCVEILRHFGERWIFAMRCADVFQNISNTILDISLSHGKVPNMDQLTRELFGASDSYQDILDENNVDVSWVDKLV
Summary of the method: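 Detection of bound protein used fluorescent anti-GST, with scans normalised by masliner. The proteins were GST-tagged yeast transcription factors applied at about 100-200 nM to universal all-10-mer Agilent arrays made double-stranded by primer extension. Each ungapped eight-base word, pooled with its reverse complement, was scored with an E-score from the Universal PBM Analysis Suite.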

**Q.** ATTCACTG was tested. Which “PBM E-score” value did it give?
**A.** -0.0515

**Q.** CTAATGGC was tested. Which “PBM E-score” value did it give?
**A.** -0.0674

**Q.** Which “PBM E-score” value does the source give for GATACTGC here?
**A.** -0.0132

**Q.** With CACCGGGG as the sequence, how does the “PBM E-score” value read?
**A.** 0.33

**Q.** With ATCTGAAA as the sequence, how does the “PBM E-score” value read?
**A.** -0.0786

**Q.** How did the “PBM E-score” value turn out when AGACGTCC was run?
**A.** -0.13

**Q.** For CCCTGTAG, which “PBM E-score” value is on record?
**A.** -0.0727

**Q.** Which “PBM E-score” value does the source give for AGAGGATA here?
**A.** -0.168

**Q.** How did the “PBM E-score” value turn out when ACGTTCCG was run?
**A.** -0.0136

**Q.** How did the “PBM E-score” value turn out when CCTGCCAG was run?
**A.** -0.205

**Q.** With GTTCCGGA as the sequence, how does the “PBM E-score” value read?
**A.** 0.231

**Q.** Which “PBM E-score” value does the source give for ATGATCCG here?
**A.** 0.165

**Q.** AGTGGTAC was tested. Which “PBM E-score” value did it give?
**A.** -0.135

**Q.** How did the “PBM E-score” value turn out when ATGCAGCG was run?
**A.** 0.172

**Q.** How did the “PBM E-score” value turn out when AAAACGAC was run?
**A.** -0.207

**Q.** For AGAATAGG, which “PBM E-score” value is on record?
**A.** -0.0639

**Q.** GCTGTGCA was tested. Which “PBM E-score” value did it give?
**A.** -0.241

**Q.** Which “PBM E-score” value does the source give for CCCCCCGC here?
**A.** 0.068

**Q.** Which “PBM E-score” value does the source give for GGCAGGCC here?
**A.** -0.103

**Q.** With GGCCAGCA as the sequence, how does the “PBM E-score” value read?
**A.** -0.249

**Q.** With CAAAGGTG as the sequence, how does the “PBM E-score” value read?
**A.** -0.0535

**Q.** With GGAGACAA as the sequence, how does the “PBM E-score” value read?
**A.** 0.26

**Q.** CCCAATCC was tested. Which “PBM E-score” value did it give?
**A.** -0.0718

**Q.** How did the “PBM E-score” value turn out when CCATCAGC was run?
**A.** -0.121

**Q.** CCAGGTTC was tested. Which “PBM E-score” value did it give?
**A.** -0.252

**Q.** With AATCCTAT as the sequence, how does the “PBM E-score” value read?
**A.** 0.106

**Q.** With GCGACCCA as the sequence, how does the “PBM E-score” value read?
**A.** 0.0254

**Q.** For CTTTCCTC, which “PBM E-score” value is on record?
**A.** -0.107

**Q.** With ATCCCCAT as the sequence, how does the “PBM E-score” value read?
**A.** 0.0305

**Q.** ATGTATGC was tested. Which “PBM E-score” value did it give?
**A.** -0.00766

**Q.** With CCGTACGC as the sequence, how does the “PBM E-score” value read?
**A.** 0.18

**Q.** With CAAGGGAG as the sequence, how does the “PBM E-score” value read?
**A.** -0.214

**Q.** How did the “PBM E-score” value turn out when GCGGGAGC was run?
**A.** 0.0709

**Q.** Which “PBM E-score” value does the source give for AAGCCGGT here?
**A.** 0.237

**Q.** Which “PBM E-score” value does the source give for AGCTTCGC here?
**A.** -0.231

**Q.** How did the “PBM E-score” value turn out when TATTGTGA was run?
**A.** -0.0986

**Q.** AAAGACTA was tested. Which “PBM E-score” value did it give?
**A.** -0.0271

**Q.** CGTCCTAG was tested. Which “PBM E-score” value did it give?
**A.** -0.139

**Q.** How did the “PBM E-score” value turn out when CAGCTATC was run?
**A.** -0.193

**Q.** For CCCCATCA, which “PBM E-score” value is on record?
**A.** 0.0625

**Q.** How did the “PBM E-score” value turn out when ATCTAATA was run?
**A.** -0.127

**Q.** How did the “PBM E-score” value turn out when CGTAGATC was run?
**A.** 0.0562

**Q.** ACTAGACA was tested. Which “PBM E-score” value did it give?
**A.** -0.184

**Q.** Which “PBM E-score” value does the source give for AAGTCTGA here?
**A.** -0.407

**Q.** With CGAGGCCG as the sequence, how does the “PBM E-score” value read?
**A.** 0.123

**Q.** With CTAGGGAC as the sequence, how does the “PBM E-score” value read?
**A.** -0.033

**Q.** How did the “PBM E-score” value turn out when CACAGAAC was run?
**A.** -0.118

**Q.** How did the “PBM E-score” value turn out when GTGTCTCA was run?
**A.** -0.165

**Q.** With CAGCCATA as the sequence, how does the “PBM E-score” value read?
**A.** -0.263

**Q.** For AGTACGAC, which “PBM E-score” value is on record?
**A.** -0.0155

**Q.** For AGGAGAAG, which “PBM E-score” value is on record?
**A.** -0.263

**Q.** Which “PBM E-score” value does the source give for AGCCATTC here?
**A.** -0.304

**Q.** Which “PBM E-score” value does the source give for AATAATAT here?
**A.** 0.262

**Q.** Which “PBM E-score” value does the source give for CTTGTCAA here?
**A.** 0.0815

**Q.** For CACGTGTA, which “PBM E-score” value is on record?
**A.** -0.157

**Q.** CCACATGG was tested. Which “PBM E-score” value did it give?
**A.** -0.139

**Q.** For GACATCTA, which “PBM E-score” value is on record?
**A.** -0.148

**Q.** AGCTGTTG was tested. Which “PBM E-score” value did it give?
**A.** -0.145

**Q.** TCGAGTAA was tested. Which “PBM E-score” value did it give?
**A.** -0.155

**Q.** Which “PBM E-score” value does the source give for AGGCGCCT here?
**A.** -0.136

**Q.** With ATGAGAAG as the sequence, how does the “PBM E-score” value read?
**A.** -0.232

**Q.** For ACGCGAGC, which “PBM E-score” value is on record?
**A.** -0.155

**Q.** With GAGGTCCA as the sequence, how does the “PBM E-score” value read?
**A.** -0.137

**Q.** For CAAACTGG, which “PBM E-score” value is on record?
**A.** -0.105

**Q.** For GCAGTAGC, which “PBM E-score” value is on record?
**A.** -0.0598

**Q.** For CACCCTCG, which “PBM E-score” value is on record?
**A.** -0.0941

**Q.** AACGAATA was tested. Which “PBM E-score” value did it give?
**A.** -0.0787

**Q.** How did the “PBM E-score” value turn out when ACGGGGAT was run?
**A.** 0.415

**Q.** How did the “PBM E-score” value turn out when CTTGGGTC was run?
**A.** -0.144

**Q.** AGGCAATA was tested. Which “PBM E-score” value did it give?
**A.** -0.0408

**Q.** With TTGGAAAA as the sequence, how does the “PBM E-score” value read?
**A.** -0.0399

**Q.** With ACGCAGAC as the sequence, how does the “PBM E-score” value read?
**A.** -0.175

**Q.** For ATGGGTGG, which “PBM E-score” value is on record?
**A.** -0.168

**Q.** How did the “PBM E-score” value turn out when ACCGTTCA was run?
**A.** 0.27

**Q.** With ATGTGACG as the sequence, how does the “PBM E-score” value read?
**A.** -0.235

**Q.** How did the “PBM E-score” value turn out when GTGCAAGA was run?
**A.** -0.00269

**Q.** ATTATTCC was tested. Which “PBM E-score” value did it give?
**A.** 0.191

**Q.** How did the “PBM E-score” value turn out when ACTCACAT was run?
**A.** -0.228

**Q.** How did the “PBM E-score” value turn out when GCCCGCCC was run?
**A.** 0.271

**Q.** How did the “PBM E-score” value turn out when CACAGTAA was run?
**A.** -0.113

**Q.** GTTAACCA was tested. Which “PBM E-score” value did it give?
**A.** -0.181

**Q.** GAAAGTGC was tested. Which “PBM E-score” value did it give?
**A.** 0.022

**Q.** GCTGAGCA was tested. Which “PBM E-score” value did it give?
**A.** -0.169

**Q.** How did the “PBM E-score” value turn out when GAGCGACA was run?
**A.** -0.14

**Q.** With CTTTAAGA as the sequence, how does the “PBM E-score” value read?
**A.** 0.0831

**Q.** For GACCTGTA, which “PBM E-score” value is on record?
**A.** -0.0228

**Q.** Which “PBM E-score” value does the source give for CCAATAAA here?
**A.** 0.0325

**Q.** With AGTAGCGA as the sequence, how does the “PBM E-score” value read?
**A.** -0.0721

**Q.** With AGTCCGGA as the sequence, how does the “PBM E-score” value read?
**A.** 0.39

**Q.** How did the “PBM E-score” value turn out when GGAAGCTA was run?
**A.** -0.285

**Q.** With CTGGTTGA as the sequence, how does the “PBM E-score” value read?
**A.** -0.299

**Q.** With CACCACGA as the sequence, how does the “PBM E-score” value read?
**A.** -0.122

**Q.** AGACACAG was tested. Which “PBM E-score” value did it give?
**A.** -0.276

**Q.** Which “PBM E-score” value does the source give for ACGGCATG here?
**A.** 0.242
